The molecules below were run against PRMT5/MEP50 Complex (Homo sapiens (Human), UniProt O14744) (assay: PRMT5 inhibition based on TR-FRET assay). Conditions: 32 nM PRMT5:MEP50, 50 nM Histone-H4 peptide, 1 μM SAM.
Format: biochemical
Text: PRMT5 Inhibition Based on TR-FRET Assay:
Protein arginine methyltransferase 5 (PRMT5) is a type II arginine methyltransferase that catalyze mono- and symmetric demethylation on arginine residues of histone or non-histone proteins in presence of S-adenosylmethionine (AdoMet or SAM) a cofactor responsible for donating the methyl group. PRMT5 is reported to be overexpressed in several human cancers. To identify compounds that inhibit the PRMT5 and decrease its activity, a TR-FRET based assay has been established. Time-resolved fluorescence resonance energy transfer (TR-FRET) HTS assays are homogeneous proximity assays where the interaction of two dye-labeled binding partners is detected by the energy transfer between a donor and an acceptor dye and the subsequent light emission by the acceptor dye. PRMT5 catalyzes Histone H4 peptide which is biotin tagged to the Lysine amino acid at carboxyl end, in presence of S-adenosyl-1-methionine (SAM) to methylate the peptide. The antibody specific to mono methylated H4 peptide (H4R3) with Ig conjugate binds to the methylated peptide, indirectly binding to the Europium lanthanide. SureLight Allophycocyanin-Streptavidin binds to the biotin tag of the peptide, therefore accepting the energy transferred from the Europium lanthanide. This energy transfer between Europium to SureLight Allophycocyanin is a direct measure of the activity/inhibition of the PRMT5 enzyme.
Assay buffer: 20 mM BICINE (pH 7.6), 25 mM NaCl, 2 mM DTT, 0.01% Tween-20 and 0.01% BSA.
The compound dilutions were prepared as 7.5% DMSO stock solutions in assay buffer. To 2 μL (7.5×) of test compound, 5 μL of PRMT5 enzyme prepared in assay buffer (Final concentration of 32 nM in 15 μL reaction volume) was added and allowed for 30 minutes pre-incubation time in a white polystyrene 384-well plate at room temperature. […] The plates were then read on Victor-3 with Excitation at 340 nm and Emissions collected at 615 and 665 nm in TR-FRET protocol. […]

Sequence of UniProt O14744 (O14744 whole entry): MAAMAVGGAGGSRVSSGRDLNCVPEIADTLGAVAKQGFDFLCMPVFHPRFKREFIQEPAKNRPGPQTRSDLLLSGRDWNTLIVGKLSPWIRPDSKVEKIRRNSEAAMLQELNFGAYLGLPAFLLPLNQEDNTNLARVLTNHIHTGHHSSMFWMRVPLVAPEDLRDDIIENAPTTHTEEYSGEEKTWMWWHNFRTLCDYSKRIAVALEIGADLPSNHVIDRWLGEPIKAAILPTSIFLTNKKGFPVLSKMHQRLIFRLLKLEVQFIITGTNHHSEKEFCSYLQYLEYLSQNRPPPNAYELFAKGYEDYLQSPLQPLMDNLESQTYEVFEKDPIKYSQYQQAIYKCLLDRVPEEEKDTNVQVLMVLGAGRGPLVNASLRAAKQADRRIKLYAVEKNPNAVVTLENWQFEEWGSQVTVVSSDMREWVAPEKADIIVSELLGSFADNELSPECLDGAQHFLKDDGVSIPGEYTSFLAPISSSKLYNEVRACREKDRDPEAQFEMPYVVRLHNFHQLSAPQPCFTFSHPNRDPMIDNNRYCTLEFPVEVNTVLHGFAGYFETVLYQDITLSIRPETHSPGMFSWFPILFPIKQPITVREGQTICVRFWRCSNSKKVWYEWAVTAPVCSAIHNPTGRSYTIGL
Sequence of UniProt O14744 (Q9BQA1 whole entry partner): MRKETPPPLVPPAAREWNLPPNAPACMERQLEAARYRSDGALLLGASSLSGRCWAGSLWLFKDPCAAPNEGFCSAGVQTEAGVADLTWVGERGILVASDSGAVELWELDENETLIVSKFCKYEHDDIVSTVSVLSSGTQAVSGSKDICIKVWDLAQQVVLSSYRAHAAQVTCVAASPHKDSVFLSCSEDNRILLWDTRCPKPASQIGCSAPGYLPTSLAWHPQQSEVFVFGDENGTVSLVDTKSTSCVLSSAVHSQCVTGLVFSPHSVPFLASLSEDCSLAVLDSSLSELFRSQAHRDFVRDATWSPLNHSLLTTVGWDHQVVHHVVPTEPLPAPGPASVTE

| SMILES | IC50 |
| --- | --- |
| Cc1ccc(CN2CCN(CC(O)CN3CCc4ccccc4C3)C2=O)cc1 (single isomer, unassigned) [Example 15b, 1-(3-(3,4-Dihydroisoquinolin-2(1H)-yl)-2-hydroxypropyl)-3-(4-methyl-benzyl)imidazolidin-2-one] | 0.05 µM |
| Cc1ccc(CN2CCN(CC(O)CN3CCc4ccccc4C3)C2=O)cc1 (stereo not drawn) [Example 15, 1-(3-(3,4-Dihydroisoquinolin-2(1H)-yl)-2-hydroxypropyl)-3-(4-methyl-benzyl)imidazolidin-2-one] | 0.31 µM |
| Cc1ccc(CN2CCN(CC(O)CN3CCc4ccccc4C3)C2=O)cc1 (single isomer, unassigned) [Example 15a, 1-(3-(3,4-Dihydroisoquinolin-2(1H)-yl)-2-hydroxypropyl)-3-(4-methyl-benzyl)imidazolidin-2-one] | > 5 µM |

From patent US11365205B2 (Aurigene Discovery Technologies Limited, priority 2018, dated 2022)
